Experimental data taken from patent publication US20100323950A1, “USE OF BETA-MELANOTROPIN AS A THERAPEUTIC AGENT, EG FOR THE TREATMENT OF AIDS OR ALZHEIMER” (priority 2007, published 2010).

Assays:
[1] = system: lymphocytotropic strain HIV-1IIIB; experiment: HIV-1 antiviral assay (CPE reduction) in CEM-SS cells; assay type: cell-based; details: peptide 10 micrograms per ml, MOI approx. 0.01, 6 days post-infection, MTS
[2] = system: CEM-SS cells; experiment: Cytotoxicity (MTS cell viability) in CEM-SS cells; details: CEM-SS cells plus peptide only, 10 micrograms per ml

SMILES: Cc1cn([C@H]2C[C@H](N=[N+]=[N-])[C@@H](CO)O2)c(=O)[nH]c1=O [AZT]
- % CPE reduction in HIV-1 infected CEM-SS cells [1]: 99%
- % Cell viability [2]: 97%
